Where a chain is given by its changes, count along the chain named.
T1: human TROP2 (Homo sapiens, UniProt P09758)
T1 sequence (P09758 27-323): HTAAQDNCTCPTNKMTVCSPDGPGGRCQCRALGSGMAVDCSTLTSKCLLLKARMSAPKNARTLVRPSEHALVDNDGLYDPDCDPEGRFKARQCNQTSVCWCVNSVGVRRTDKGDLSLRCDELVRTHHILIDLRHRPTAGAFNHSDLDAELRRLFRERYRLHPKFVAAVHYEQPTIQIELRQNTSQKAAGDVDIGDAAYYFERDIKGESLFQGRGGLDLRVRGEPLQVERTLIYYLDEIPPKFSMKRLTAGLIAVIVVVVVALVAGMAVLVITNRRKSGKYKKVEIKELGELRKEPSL

B1: HC3/LC1 (antibody)
heavy: QVQLVQSGAEVKKPGASVKVSCKASGYTFTDYSINWVRQAPGQRLEWMGVISTYYGDASYNQKFKGRVTITRDTSASTAYMELSSLRSEDTAVYYCARYGDGYNQFDYWGQGTLVTVSS[human IgG1 constant region cut from this listing]
light: DIVMTQSPDSLAVSLGERATINCRVSESVDSYGNNFMHWYQQKPGQPPKLLIYRASNLESGVPDRFSGSGSGTDFTLTISSLQAEDVAVYYCQQSYEDPYTFGQGTKLEIKRTVAAPSVFIFPPSDEQLKSGTASVVCLLNNFYPREAKVQWKVDNALQSGNSQESVTEQDSKDSTYSLSSTLTLSKADYEKHKVYACEVTHQGLSSPVTKSFNRGEC
B2: HC1/LC4: humanized anti-TROP2 antibody, heavy chain SEQ ID NO: 52, light chain SEQ ID NO: 61 (antibody)
heavy: B1 heavy with R44G, I70M, R72T, A76T, S84R, E89D, L114M
light: EIVLTQSPATLSLSPGERATLSCRVSESVDSYGNNFMHWYQQKPGQAPRLLIYRASNLESGIPARFSGSGSGTDFTLTISSLEPEDFAVYYCQQSYEDPYTFGGGTKVEIKRTVAAPSVFIFPPSDEQLKSGTASVVCLLNNFYPREAKVQWKVDNALQSGNSQESVTEQDSKDSTYSLSSTLTLSKADYEKHKVYACEVTHQGLSSPVTKSFNRGEC
B3: HC4/LC3: humanized anti-TROP2 antibody, heavy chain SEQ ID NO: 55, light chain SEQ ID NO: 60 (antibody)
heavy: B1 heavy with A16S, R44G, R72A, T74E, A76T
light: DIVMTQSPLSLPVTPGEPASISCRVSESVDSYGNNFMHWYLQKPGQSPQLLIYRASNLESGVPDRFSGSGSGTDFTLKISRVEAEDVGVYYCQQSYEDPYTFGGGTKVEIKRTVAAPSVFIFPPSDEQLKSGTASVVCLLNNFYPREAKVQWKVDNALQSGNSQESVTEQDSKDSTYSLSSTLTLSKADYEKHKVYACEVTHQGLSSPVTKSFNRGEC
B4: HC2/LC4: humanized anti-TROP2 antibody, heavy chain SEQ ID NO: 53, light chain SEQ ID NO: 61 (antibody)
heavy: B1 heavy with R44G, I70M, A76T, A79V
light: B2 light
B5: HC2/LC3: humanized anti-TROP2 antibody, heavy chain SEQ ID NO: 53, light chain SEQ ID NO: 60 (antibody)
heavy: B1 heavy with R44G, I70M, A76T, A79V
light: B3 light
B6: HC3/LC3: humanized anti-TROP2 antibody, heavy chain SEQ ID NO: 54, light chain SEQ ID NO: 60 (antibody)
heavy: B1 heavy
light: B3 light

These molecules were tested against T1, human TROP2 (assay: SPR affinity ranking of humanized antibodies (Table 8C)).
Format: binding

Question: What does the source list for B1?
Answer: Ka: 1.65e+06 M⁻¹ s⁻¹; Kd (1/s): 0.00011 s⁻¹; Rmax (RU): 53.3 RU

Question: Which results are given for B2?
Answer: Ka: 1.38e+06 M⁻¹ s⁻¹; Kd (1/s): 0.000126 s⁻¹; Rmax (RU): 45 RU

Question: With B3 as the molecule, how does the “Ka” value read?
Answer: 1.95e+06 M⁻¹ s⁻¹

Question: And the “Kd (1/s)” value?
Answer: 0.000178 s⁻¹

Question: And the “Rmax (RU)” value?
Answer: 29.6 RU

Question: What does the source list for B4?
Answer: Ka: 1.46e+06 M⁻¹ s⁻¹; Kd (1/s): 0.00014 s⁻¹; Rmax (RU): 41.3 RU

Question: For B5, which “Ka” value is on record?
Answer: 1.36e+06 M⁻¹ s⁻¹

Question: What about the “Kd (1/s)” value of the same molecule?
Answer: 0.000141 s⁻¹

Question: What about the “Rmax (RU)” value of the same molecule?
Answer: 35.4 RU

Question: Which “Ka” value does the source give for B6 here?
Answer: 1.49e+06 M⁻¹ s⁻¹

Question: What about the “Kd (1/s)” value of the same molecule?
Answer: 0.000159 s⁻¹

Question: And the “Rmax (RU)” value?
Answer: 35.2 RU

Source: patent US12458818B2, “Anti-trophoblast cell surface antigen 2 (TROP2) antibodies and antibody drug conjugates comprising same” (CSPC MEGALITH BIOPHARMACEUTICAL CO., LTD., priority 2019, dated 2025)
